Data taken from the supplement of paper PMC12423691.
The other results are listed elsewhere or left out. Binding of human transcription factors and regulators to the viral nucleoprotein by AlphaScreen, crude cell-free proteins, amounts not normalised, one pass. Fold of the Venus control; higher = more signal. No active / inactive call. Single-pass screen; sequences are the whole Swiss-Prot entries looked up by name.

B1: MLXIP, Q9HAP2 (protein)
chain: MAADVFMCSPRRPRSRGRQVLLKPQVSEDDDDSDTDEPSPPPASGAATPARAHASAAPPPPRAGPGREEPPRRQQIIHSGHFMVSSPHREHPPKKGYDFDTVNKQTCQTYSFGKTSSCHLSIDASLTKLFECMTLAYSGKLVSPKWKNFKGLKLQWRDKIRLNNAIWRAWYMQYLEKRKNPVCHFVTPLDGSVDVDEHRRPEAITTEGKYWKSRIEIVIREYHKWRTYFKKRLQQHKDEDLSSLVQDDDMLYWHKHGDGWKTPVPMEEDPLLDTDMLMSEFSDTLFSTLSSHQPVAWPNPREIAHLGNADMIQPGLIPLQPNLDFMDTFEPFQDLFSSSRSIFGSMLPASASAPVPDPNNPPAQESILPTTALPTVSLPDSLIAPPTAPSLAHMDEQGCEHTSRTEDPFIQPTDFGPSEPPLSVPQPFLPVFTMPLLSPSPAPPPISPVLPLVPPPATALNPPAPPTFHQPQKFAGVNKAPSVITHTASATLTHDAPATTFSQSQGLVITTHHPAPSAAPCGLALSPVTRPPQPRLTFVHPKPVSLTGGRPKQPHKIVPAPKPEPVSLVLKNARIAPAAFSGQPQAVIMTSGPLKREGMLASTVSQSNVVIAPAAIARAPGVPEFHSSILVTDLGHGTSSPPAPVSRLFPSTAQDPLGKGEQVPLHGGSPQVTVTGPSRDCPNSGQASPCASEQSPSPQSPQNNCSGKSDPKNVAALKNRQMKHISAEQKRRFNIKMCFDMLNSLISNNSKLTSHAITLQKTVEYITKLQQERGQMQEEARRLREEIEELNATIISCQQLLPATGVPVTRRQFDHMKDMFDEYVKTRTLQNWKFWIFSIIIKPLFESFKGMVSTSSLEELHRTALSWLDQHCSLPILRPMVLSTLRQLSTSTSILTDPAQLPEQASKAVTRIGKRLGES
B2: PHF1, O43189 (protein)
chain: MAQPPRLSRSGASSLWDPASPAPTSGPRPRLWEGQDVLARWTDGLLYLGTIKKVDSAREVCLVQFEDDSQFLVLWKDISPAALPGEELLCCVCRSETVVPGNRLVSCEKCRHAYHQDCHVPRAPAPGEGEGTSWVCRQCVFAIATKRGGALKKGPYARAMLGMKLSLPYGLKGLDWDAGHLSNRQQSYCYCGGPGEWNLKMLQCRSCLQWFHEACTQCLSKPLLYGDRFYEFECCVCRGGPEKVRRLQLRWVDVAHLVLYHLSVCCKKKYFDFDREILPFTSENWDSLLLGELSDTPKGERSSRLLSALNSHKDRFISGREIKKRKCLFGLHARMPPPVEPPTGDGALTSFPSGQGPGGGVSRPLGKRRRPEPEPLRRRQKGKVEELGPPSAVRNQPEPQEQRERAHLQRALQASVSPPSPSPNQSYQGSSGYNFRPTDARCLPSSPIRMFASFHPSASTAGTSGDSGPPDRSPLELHIGFPTDIPKSAPHSMTASSSSVSSPSPGLPRRSAPPSPLCRSLSPGTGGGVRGGVGYLSRGDPVRVLARRVRPDGSVQYLVEWGGGGIF
B3: TRPS1, Q9UHF7 (protein)
chain: MVRKKNPPLRNVASEGEGQILEPIGTESKVSGKNKEFSADQMSENTDQSDAAELNHKEEHSLHVQDPSSSSKKDLKSAVLSEKAGFNYESPSKGGNFPSFPHDEVTDRNMLAFSSPAAGGVCEPLKSPQRAEADDPQDMACTPSGDSLETKEDQKMSPKATEETGQAQSGQANCQGLSPVSVASKNPQVPSDGGVRLNKSKTDLLVNDNPDPAPLSPELQDFKCNICGYGYYGNDPTDLIKHFRKYHLGLHNRTRQDAELDSKILALHNMVQFSHSKDFQKVNRSVFSGVLQDINSSRPVLLNGTYDVQVTSGGTFIGIGRKTPDCQGNTKYFRCKFCNFTYMGNSSTELEQHFLQTHPNKIKASLPSSEVAKPSEKNSNKSIPALQSSDSGDLGKWQDKITVKAGDDTPVGYSVPIKPLDSSRQNGTEATSYYWCKFCSFSCESSSSLKLLEHYGKQHGAVQSGGLNPELNDKLSRGSVINQNDLAKSSEGETMTKTDKSSSGAKKKDFSSKGAEDNMVTSYNCQFCDFRYSKSHGPDVIVVGPLLRHYQQLHNIHKCTIKHCPFCPRGLCSPEKHLGEITYPFACRKSNCSHCALLLLHLSPGAAGSSRVKHQCHQCSFTTPDVDVLLFHYESVHESQASDVKQEANHLQGSDGQQSVKESKEHSCTKCDFITQVEEEISRHYRRAHSCYKCRQCSFTAADTQSLLEHFNTVHCQEQDITTANGEEDGHAISTIKEEPKIDFRVYNLLTPDSKMGEPVSESVVKREKLEEKDGLKEKVWTESSSDDLRNVTWRGADILRGSPSYTQASLGLLTPVSGTQEQTKTLRDSPNVEAAHLARPIYGLAVETKGFLQGAPAGGEKSGALPQQYPASGENKSKDESQSLLRRRRGSGVFCANCLTTKTSLWRKNANGGYVCNACGLYQKLHSTPRPLNIIKQNNGEQIIRRRTRKRLNPEALQAEQLNKQQRGSNEEQVNGSPLERRSEDHLTESHQREIPLPSLSKYEAQGSLTKSHSAQQPVLVSQTLDIHKRMQPLHIQIKSPQESTGDPGNSSSVSEGKGSSERGSPIEKYMRPAKHPNYSPPGSPIEKYQYPLFGLPFVHNDFQSEADWLRFWSKYKLSVPGNPHYLSHVPGLPNPCQNYVPYPTFNLPPHFSAVGSDNDIPLDLAIKHSRPGPTANGASKEKTKAPPNVKNEGPLNVVKTEKVDRSTQDELSTKCVHCGIVFLDEVMYALHMSCHGDSGPFQCSICQHLCTDKYDFTTHIQRGLHRNNAQVEKNGKPKE
B4: CHUK, O15111 (protein)
chain: MERPPGLRPGAGGPWEMRERLGTGGFGNVCLYQHRELDLKIAIKSCRLELSTKNRERWCHEIQIMKKLNHANVVKACDVPEELNILIHDVPLLAMEYCSGGDLRKLLNKPENCCGLKESQILSLLSDIGSGIRYLHENKIIHRDLKPENIVLQDVGGKIIHKIIDLGYAKDVDQGSLCTSFVGTLQYLAPELFENKPYTATVDYWSFGTMVFECIAGYRPFLHHLQPFTWHEKIKKKDPKCIFACEEMSGEVRFSSHLPQPNSLCSLVVEPMENWLQLMLNWDPQQRGGPVDLTLKQPRCFVLMDHILNLKIVHILNMTSAKIISFLLPPDESLHSLQSRIERETGINTGSQELLSETGISLDPRKPASQCVLDGVRGCDSYMVYLFDKSKTVYEGPFASRSLSDCVNYIVQDSKIQLPIIQLRKVWAEAVHYVSGLKEDYSRLFQGQRAAMLSLLRYNANLTKMKNTLISASQQLKAKLEFFHKSIQLDLERYSEQMTYGISSEKMLKAWKEMEEKAIHYAEVGVIGYLEDQIMSLHAEIMELQKSPYGRRQGDLMESLEQRAIDLYKQLKHRPSDHSYSDSTEMVKIIVHTVQSQDRVLKELFGHLSKLLGCKQKIIDLLPKVEVALSNIKEADNTVMFMQGKRQKEIWHLLKIACTQSSARSLVGSSLEGAVTPQTSAWLPPTSAEHDHSLSCVVTPQDGETSAQMIEENLNCLGHLSTIIHEANEEQGNSMMNLDWSWLTE

Target: nucleoprotein N of Crimean-Congo hemorrhagic fever virus
Test: AlphaScreen luminescence signal relative to Venus negative control (fold); higher = stronger binding to CCHFV N
Experimental: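 AlphaScreen binding of cell-free made, FLAG-GST-tagged human transcription factors and regulators (crude translation products) to biotinylated N protein; signal as fold of the FLAG-GST-Venus control. One pass.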

Binder	AlphaScreen luminescence signal
B1	1.4
B2	1.86
B3	1.86
B4	2.6
